The list shows a part of the results.
Key:
Assay in all cases: glycan array binding signal (z-score within array); higher = stronger binding
Settings in all cases: glycan notation: IUPAC condensed, linker removed
[1] = molecular target: Gal(a1-4)Gal(b1-4)GlcNAc(b1-3)Gal(b1-4)Glc
Method in brief: (§1)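 Glycan array data were curated from 3228 arrays in the Consortium for Functional Glycomics database and kept only where the protein sequence was available. Glycan names were converted to IUPAC-condensed notation, and columns mapping to the same glycan were averaged. The binding signal is a within-array Z-score, averaged across arrays of the same protein sequence at different concentrations or buffers and across linkers. Negative Z-scores can be read as non-binding.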

Gal(a1-4)GlcNAc = molecular target: Gal(a1-4)GlcNAc
Method in brief: as §1

Gal(a1-6)Glc = molecular target: Gal(a1-6)Glc
Method in brief: as §1

Gal(b1-2)Gal = molecular target: Gal(b1-2)Gal
Method in brief: as §1

Gal(b1-3)Gal = molecular target: Gal(b1-3)Gal
Method in brief: as §1

Gal(b1-3)Gal(b1-4)GlcNAc = molecular target: Gal(b1-3)Gal(b1-4)GlcNAc
Method in brief: as §1

Gal(b1-3)GalNAc = molecular target: Gal(b1-3)GalNAc
Method in brief: as §1

[2] = molecular target: Gal(b1-3)GalNAc(a1-3)[Fuc(a1-2)]Gal(b1-4)Glc
Method in brief: as §1

[3] = molecular target: Gal(b1-3)GalNAc(a1-3)[Fuc(a1-2)]Gal(b1-4)GlcNAc
Method in brief: as §1

Gal(b1-3)GalNAc(b1-3)Gal = molecular target: Gal(b1-3)GalNAc(b1-3)Gal
Method in brief: as §1

[4] = molecular target: Gal(b1-3)GalNAc(b1-3)Gal(a1-4)Gal(b1-4)Glc
Method in brief: as §1

[5] = molecular target: Gal(b1-3)GalNAc(b1-4)Gal(b1-4)Glc
Method in brief: as §1

[6] = molecular target: Gal(b1-3)GalNAc(b1-4)[Neu5Ac(a2-3)]Gal(b1-4)Glc
Method in brief: as §1

Gal(b1-3)GlcNAc = molecular target: Gal(b1-3)GlcNAc
Method in brief: as §1

[7] = molecular target: Gal(b1-3)GlcNAc(a1-3)Gal(b1-4)GlcNAc
Method in brief: as §1

[8] = molecular target: Gal(b1-3)GlcNAc(a1-6)Gal(b1-4)GlcNAc
Method in brief: as §1

Gal(b1-3)GlcNAc(b1-2)Man = molecular target: Gal(b1-3)GlcNAc(b1-2)Man
Method in brief: as §1

[9] = molecular target: Gal(b1-3)GlcNAc(b1-2)Man(a1-3)[Gal(b1-3)GlcNAc(b1-2)Man(a1-6)]Man(b1-4)GlcNAc(b1-4)GlcNAc
Method in brief: as §1

[10] = molecular target: Gal(b1-3)GlcNAc(b1-2)Man(a1-3)[Gal(b1-3)GlcNAc(b1-2)Man(a1-6)]Man(b1-4)GlcNAc(b1-4)[Fuc(a1-6)]GlcNAc
Method in brief: as §1

[11] = molecular target: Gal(b1-3)GlcNAc(b1-2)Man(a1-3)[GlcNAc(b1-4)][Gal(b1-3)GlcNAc(b1-2)Man(a1-6)]Man(b1-4)GlcNAc(b1-4)GlcNAc
Method in brief: as §1

[12] = molecular target: Gal(b1-3)GlcNAc(b1-2)[Gal(b1-3)GlcNAc(b1-6)]Man(a1-6)[Gal(b1-3)GlcNAc(b1-2)Man(a1-3)]Man(b1-4)GlcNAc(b1-4)GlcNAc
Method in brief: as §1

[13] = molecular target: Gal(b1-3)GlcNAc(b1-3)Gal(b1-3)GlcNAc
Method in brief: as §1

[14] = molecular target: Gal(b1-3)GlcNAc(b1-3)Gal(b1-4)Glc
Method in brief: as §1

[15] = molecular target: Gal(b1-3)GlcNAc(b1-3)Gal(b1-4)GlcNAc
Method in brief: as §1

[16] = molecular target: Gal(b1-3)GlcNAc(b1-3)Gal(b1-4)GlcNAc(b1-2)Man(a1-3)[Gal(b1-3)GlcNAc(b1-3)Gal(b1-4)GlcNAc(b1-2)Man(a1-6)]Man(b1-4)GlcNAc(b1-4)GlcNAc
Method in brief: as §1

[17] = molecular target: Gal(b1-3)GlcNAc(b1-3)Gal(b1-4)GlcNAc(b1-2)[Gal(b1-3)GlcNAc(b1-3)Gal(b1-4)GlcNAc(b1-6)]Man(a1-6)[Gal(b1-3)GlcNAc(b1-3)Gal(b1-4)GlcNAc(b1-2)Man(a1-3)]Man(b1-4)GlcNAc(b1-4)[Fuc(a1-6)]GlcNAc
Method in brief: as §1

[18] = molecular target: Gal(b1-3)GlcNAc(b1-3)Gal(b1-4)GlcNAc(b1-3)Gal(b1-4)GlcNAc(b1-2)[Gal(b1-3)GlcNAc(b1-3)Gal(b1-4)GlcNAc(b1-3)Gal(b1-4)GlcNAc(b1-6)]Man(a1-6)[Gal(b1-3)GlcNAc(b1-3)Gal(b1-4)GlcNAc(b1-3)Gal(b1-4)GlcNAc(b1-2)Man(a1-3)]Man(b1-4)GlcNAc(b1-4)[Fuc(a1-6)]GlcNAc
Method in brief: as §1

[19] = molecular target: Gal(b1-3)GlcNAc(b1-3)Gal(b1-4)GlcNAc(b1-6)[Gal(b1-3)GlcNAc(b1-3)]Gal(b1-4)Glc
Method in brief: as §1

[20] = molecular target: Gal(b1-3)GlcNAc(b1-3)Gal(b1-4)[Fuc(a1-3)]GlcNAc
Method in brief: as §1

[21] = molecular target: Gal(b1-3)GlcNAc(b1-3)Gal(b1-4)[Fuc(a1-3)]GlcNAc(b1-6)[Gal(b1-3)GlcNAc(b1-3)]Gal(b1-4)Glc
Method in brief: as §1

[22] = molecular target: Gal(b1-3)GlcNAc(b1-3)GalNAc
Method in brief: as §1

[23] = molecular target: Gal(b1-3)GlcNAc(b1-6)Gal(b1-4)GlcNAc
Method in brief: as §1

[24] = molecular target: Gal(b1-3)GlcNAc(b1-6)GalNAc
Method in brief: as §1

[25] = molecular target: Gal(b1-3)GlcNAc(b1-6)[Gal(b1-3)]GalNAc
Method in brief: as §1

Gal(b1-3)GlcNAc6S = molecular target: Gal(b1-3)GlcNAc6S
Method in brief: as §1

[26] = molecular target: Gal(b1-3)[Fuc(a1-4)]GlcNAc
Method in brief: as §1

[27] = molecular target: Gal(b1-3)[Fuc(a1-4)]GlcNAc(b1-2)Man
Method in brief: as §1

[28] = molecular target: Gal(b1-3)[Fuc(a1-4)]GlcNAc(b1-2)Man(a1-3)[Gal(b1-3)[Fuc(a1-4)]GlcNAc(b1-2)Man(a1-6)]Man(b1-4)GlcNAc(b1-4)[Fuc(a1-6)]GlcNAc
Method in brief: as §1

[29] = molecular target: Gal(b1-3)[Fuc(a1-4)]GlcNAc(b1-3)Gal(b1-3)[Fuc(a1-4)]GlcNAc
Method in brief: as §1

[30] = molecular target: Gal(b1-3)[Fuc(a1-4)]GlcNAc(b1-3)Gal(b1-4)GlcNAc
Method in brief: as §1

[31] = molecular target: Gal(b1-3)[Fuc(a1-4)]GlcNAc(b1-3)Gal(b1-4)[Fuc(a1-3)]GlcNAc
Method in brief: as §1

[32] = molecular target: Gal(b1-3)[Fuc(a1-4)]GlcNAc(b1-6)GalNAc
Method in brief: as §1

[33] = molecular target: Gal(b1-3)[GlcNAc(b1-6)]GalNAc
Method in brief: as §1

[34] = molecular target: Gal(b1-3)[Neu5Ac(a2-6)]GalNAc
Method in brief: as §1

[35] = molecular target: Gal(b1-3)[Neu5Ac(a2-6)]GlcNAc(b1-4)Gal(b1-4)Glc
Method in brief: as §1

B1: rMpL (Macrolepiota procera) (protein)
chain: MSTQVSSGRTYKITNVIAGTVIDLSGEDNKSIIGYPYHSGKNQQWTFNWTGKAWTLRSASSGSYLGIEGTPAGGTRLVAVNDPFEWHIWRDEANENAFRIFVPFTNYNLDLSGYGDTTPGTPVQLWWTWEGLHQTWTIDRP
- glycan array binding signal (z-score) [1]: -0.334
- glycan array binding signal (z-score) (Gal(a1-4)GlcNAc): -0.351
- glycan array binding signal (z-score) (Gal(a1-6)Glc): -0.305
- glycan array binding signal (z-score) (Gal(b1-2)Gal): -0.322
- glycan array binding signal (z-score) (Gal(b1-3)Gal): -0.239
- glycan array binding signal (z-score) (Gal(b1-3)Gal(b1-4)GlcNAc): -0.257
- glycan array binding signal (z-score) (Gal(b1-3)GalNAc): -0.273
- glycan array binding signal (z-score) [2]: -0.084
- glycan array binding signal (z-score) [3]: -0.155
- glycan array binding signal (z-score) (Gal(b1-3)GalNAc(b1-3)Gal): -0.243
- glycan array binding signal (z-score) [4]: -0.22
- glycan array binding signal (z-score) [5]: -0.17
- glycan array binding signal (z-score) [6]: -0.293
- glycan array binding signal (z-score) (Gal(b1-3)GlcNAc): 0.376
- glycan array binding signal (z-score) [7]: 0.896
- glycan array binding signal (z-score) [8]: 1.95
- glycan array binding signal (z-score) (Gal(b1-3)GlcNAc(b1-2)Man): 0.202
- glycan array binding signal (z-score) [9]: 2.45
- glycan array binding signal (z-score) [10]: 0.864
- glycan array binding signal (z-score) [11]: 2.85
- glycan array binding signal (z-score) [12]: 3.42
- glycan array binding signal (z-score) [13]: 0.42
- glycan array binding signal (z-score) [14]: 0.808
- glycan array binding signal (z-score) [15]: 0.716
- glycan array binding signal (z-score) [16]: 2.18
- glycan array binding signal (z-score) [17]: 2.4
- glycan array binding signal (z-score) [18]: 3.58
- glycan array binding signal (z-score) [19]: 4.17
- glycan array binding signal (z-score) [20]: 0.567
- glycan array binding signal (z-score) [21]: 2.71
- glycan array binding signal (z-score) [22]: 0.153
- glycan array binding signal (z-score) [23]: 1.8
- glycan array binding signal (z-score) [24]: 0.242
- glycan array binding signal (z-score) [25]: 0.111
- glycan array binding signal (z-score) (Gal(b1-3)GlcNAc6S): -0.257
- glycan array binding signal (z-score) [26]: -0.339
- glycan array binding signal (z-score) [27]: -0.002
- glycan array binding signal (z-score) [28]: -0.163
- glycan array binding signal (z-score) [29]: -0.238
- glycan array binding signal (z-score) [30]: 0.949
- glycan array binding signal (z-score) [31]: -0.309
- glycan array binding signal (z-score) [32]: -0.166
- glycan array binding signal (z-score) [33]: -0.29
- glycan array binding signal (z-score) [34]: -0.283
- glycan array binding signal (z-score) [35]: -0.319

From the supplement of paper PMC8728848
